Measured values as given in PubChem BioAssay AID686979 (National Center for Advancing Translational Sciences (NCATS), 2013).
Values joined by “and” are separate entries in the source; they are usually repeats but may differ in a detail not shown here. Equal entries are not always repeated. Out of some 420,000 compounds screened, about 50,000 (12%) were called active. Inconclusive means that the source gave no clear call. Such entries were picked first, then a sample of the others. The call rests on the fitted dose curve; in most records, active means well fitted inhibition curve with a large enough effect; inconclusive means small, poorly fitted or top-dose-only effect; inactive means flat fitted curve, though single readings scatter. A potency beside an inconclusive call is a rough fit, not a confirmed value.

Assay: qHTS for Inhibitors of human tyrosyl-DNA phosphodiesterase 1 (TDP1): qHTS in cells in presence of CPT; further: nearly all actives have a fitted effect of over 55% in size
Settings: chicken DT40 Tdp1-/-;hTDP1 cells + 20 nM CPT, ATP luminescence, 48 h; series mostly up to 46.2 µM
Method in brief: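 Chicken DT40 Tdp1-/- cells complemented with human TDP1, 400 cells/well, exposed to compounds plus 20 nM camptothecin for at least 48 h at 37 C; viability read as ATP content by CellTiter-Glo luminescence.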
Potency means the concentration at half of the fitted maximal effect; tags describe the fitted curve by direction and shape.

| SMILES | Potency |
| --- | --- |
| CCc1cccc(C)c1NC(=O)Cn1c(=O)cc(C(F)(F)F)c2c(C)nn(C)c21 | inconclusive: 18.4 µM [inhibitor, single point] |
| COc1ccc(OC)c(S(=O)(=O)NCc2ccccn2)c1 | inactive |
| NS(=O)(=O)c1ccc(N/N=C2/CCCCC2C2CCCCC2)c([N+](=O)[O-])c1 (centres undefined) | active: 20.6 µM |
| CS(=O)(=O)N(CC(=O)NC1CCCCCC1)Cc1ccc(Cl)cc1 | inconclusive: 8.91 µM [inhibitor, partial curve] |
| O=C(O)c1cnn(-c2ccccc2)c1-n1cccc1 | inactive |
| O=C(Nc1ccc(F)cc1F)c1c2c(nc3ccccc13)C(=O)N(C1CCCCC1)C2 | inconclusive: 6.51 µM [inhibitor, partial curve] |
| COc1cc(SC#N)ccc1N=Cc1c(C)[nH]n(-c2ccc(C)cc2)c1=O | active: 2.59 µM |
| Cc1noc(C)c1S(=O)(=O)N(CC(=O)NCc1ccccc1Cl)c1ccc(C(C)C)cc1 | inconclusive: 18.4 µM [inhibitor, single point] |
| CN1CCC(N(C)C(=O)/C(C#N)=C/c2ccccc2)CC1 | inactive |
| Cc1ccc(OCC(=O)Nc2ccc(O)c(-c3nc4ccccc4o3)c2)cc1 | active: 11.6 µM |
| O=C(c1ccc(-n2cncn2)c([N+](=O)[O-])c1)N1CCN(S(=O)(=O)c2ccccc2Br)CC1 | inconclusive: 29.1 µM [inhibitor, single point] |
| COc1ncnc2c1ncn2CCCNCc1ccco1 | inactive |
| COc1cc2cc(CN(CCCN3CCOCC3)C(=O)Nc3ccc(F)cc3)c(=O)[nH]c2cc1OC | inactive |
| CN(C)c1cccc(N(C)C)c1CNC(=O)NC(=O)c1c(F)cccc1F | inconclusive: 23.1 µM [inhibitor, single point] |
| COc1ccc2[nH]c(=O)c(CN(Cc3ccc4c(c3)OCO4)C(C)=O)cc2c1 | inconclusive: 25.9 µM [inhibitor, single point] |
| CCOC(=O)CSc1nn(-c2ccccc2)c(=S)s1 | inactive |
| Cc1ccc(Nc2cc(C)nc3ncnn23)c(Cl)c1 | inconclusive: 23.1 µM [inhibitor, single point] |
| CCC(C)NC(=O)[C@@H]1CCCN1C(=O)C1CCN(S(=O)(=O)c2ccc(C)cc2)CC1 (some centres undefined) | inactive |
| Cc1ccc(-n2c(CNc3ccc(C)c(Cl)c3)n[nH]c2=S)cc1 | inconclusive: 29.1 µM [inhibitor, single point] |
| O=C(Nc1c(-c2ccccc2)nc2ccccn12)c1ccc(Br)cc1 | inconclusive: 18.4 µM [inhibitor, single point] |
| CCN1CCN(C(=O)/C=C/c2ccc(C(C)C)cc2)CC1 | inactive |
| C=CCSC1=Nc2cc(OC)c(OC)cc2C2=NC(=O)CN12 | inconclusive: 8.2 µM [inhibitor, partial curve] |

| SMILES | Potency |
| --- | --- |
| CC(C)(C)c1csc(NC2=NS(=O)(=O)c3ccccc32)n1 | inconclusive: 1.16 µM [inhibitor, partial curve] |
| Cc1cc(C)cc(-n2ncc3c2CCCC3NC(=O)c2ccccc2)c1 (centres undefined) | inconclusive: 25.9 µM [inhibitor, single point] |
| Cn1cc(Br)c(C(=O)NC(=S)N2CCN(c3ccccn3)CC2)n1 | inconclusive: 29.1 µM [inhibitor, single point] |
| COc1ccc(/C=N/Nc2ncc(C(F)(F)F)cc2Cl)c(OC)c1OC | inconclusive: 29.1 µM [inhibitor, single point] |
| CN(C)C(=O)c1ccc(NC(=O)COC(=O)CCN=C2NS(=O)(=O)c3ccccc32)cc1 | inactive |
| COC(=O)c1ccc(C23CC4(C2)[C@H](CN(C)[C@@H]4c2ccccc2)C3c2ccc(C(F)(F)F)cc2)cc1 (some centres undefined) | inconclusive: 18.4 µM [inhibitor, single point] |
| Cc1ccc(SCc2cc(=O)[nH]c(N3CCN(C)CC3)n2)cc1 | inactive |
| Cc1ccc(N(CC(=O)N2CCN(c3ccc(Cl)cc3)CC2)S(=O)(=O)c2c(C)noc2C)cc1 | inconclusive: 16.4 µM [inhibitor, single point] |
| CCn1c(CCNC(=O)c2cccs2)nnc1SCC(=O)c1ccc(OC)cc1 | inconclusive: 29.1 µM [inhibitor, single point] |
| O=C(NC(=S)NC1CCCC1)c1ccccc1 | inconclusive: 13 µM [inhibitor, single point] |
| c1ccc2c(c1)ncn2CCCOc1ccc2c(c1)CCC2 | inconclusive: 16.4 µM [inhibitor, single point] |
| CC1CN(c2nc3ccccc3cc2-c2ccccc2)CC(C)O1 (centres undefined) | inconclusive: 29.1 µM [inhibitor, single point] |
| Cc1ccc(SCc2ccc(C(=O)N3CCCCC3)cc2)cc1 | inactive |
| COc1ccccc1NC(=O)N1CCN(c2ccnc3cc(Cl)ccc23)CC1 | inconclusive: 29.1 µM [inhibitor, single point] |
| Cc1cc2ccccn2c1C(=O)c1nc(NCc2ccccc2)ncc1Cl | inconclusive: 22.4 µM [inhibitor, single point] and inconclusive: 25.9 µM [inhibitor, single point] |
| COc1ccc(-c2nn(CC(=O)Nc3ccccc3F)c3c2cnc2ccc(F)cc23)cc1 | inconclusive: 25.9 µM [inhibitor, single point] |
| COc1ccc(C2C(=O)N(C3CCCCC3)CC(=O)N2Cc2ccccc2Cl)cc1OC (centres undefined) | inconclusive: 5.17 µM [inhibitor, partial curve] |
| CC1=Nn2c(nc(-c3ccccc3)c2-c2ccccc2)N(CC(N)=O)C(=O)C1 | inactive |
| COC(=O)CCC(=O)N1CN2CN(C(=O)CCC(=O)OC)CC([N+](=O)[O-])(C2)C1 | inactive |
| CCOC(=O)Cn1nc(NC(=O)c2cc(OC)cc(OC)c2)cc1C | inconclusive: 20.6 µM [inhibitor, single point] |
| COc1ccc(CCN2C(=O)c3cccnc3C2=O)cc1OC | inactive |
| COc1ccc(CNc2nc(-c3cccc(NS(C)(=O)=O)c3)nc3ccccc23)c(OC)c1 | inconclusive: 20.6 µM [inhibitor, single point] |
